This is an account of results in publication PMC9456277.

Sequences of proteins named here, by UniProt entry; tags and fusion partners are left off. A change or cut given only in a name is not applied to a line headed by its entry. A line that says so, or that is headed by a name, gives the form on record, which may keep a tag or linker. Residues count along the entry.
neural cell adhesion molecule (NCAM) (P13595, residues 20-1115): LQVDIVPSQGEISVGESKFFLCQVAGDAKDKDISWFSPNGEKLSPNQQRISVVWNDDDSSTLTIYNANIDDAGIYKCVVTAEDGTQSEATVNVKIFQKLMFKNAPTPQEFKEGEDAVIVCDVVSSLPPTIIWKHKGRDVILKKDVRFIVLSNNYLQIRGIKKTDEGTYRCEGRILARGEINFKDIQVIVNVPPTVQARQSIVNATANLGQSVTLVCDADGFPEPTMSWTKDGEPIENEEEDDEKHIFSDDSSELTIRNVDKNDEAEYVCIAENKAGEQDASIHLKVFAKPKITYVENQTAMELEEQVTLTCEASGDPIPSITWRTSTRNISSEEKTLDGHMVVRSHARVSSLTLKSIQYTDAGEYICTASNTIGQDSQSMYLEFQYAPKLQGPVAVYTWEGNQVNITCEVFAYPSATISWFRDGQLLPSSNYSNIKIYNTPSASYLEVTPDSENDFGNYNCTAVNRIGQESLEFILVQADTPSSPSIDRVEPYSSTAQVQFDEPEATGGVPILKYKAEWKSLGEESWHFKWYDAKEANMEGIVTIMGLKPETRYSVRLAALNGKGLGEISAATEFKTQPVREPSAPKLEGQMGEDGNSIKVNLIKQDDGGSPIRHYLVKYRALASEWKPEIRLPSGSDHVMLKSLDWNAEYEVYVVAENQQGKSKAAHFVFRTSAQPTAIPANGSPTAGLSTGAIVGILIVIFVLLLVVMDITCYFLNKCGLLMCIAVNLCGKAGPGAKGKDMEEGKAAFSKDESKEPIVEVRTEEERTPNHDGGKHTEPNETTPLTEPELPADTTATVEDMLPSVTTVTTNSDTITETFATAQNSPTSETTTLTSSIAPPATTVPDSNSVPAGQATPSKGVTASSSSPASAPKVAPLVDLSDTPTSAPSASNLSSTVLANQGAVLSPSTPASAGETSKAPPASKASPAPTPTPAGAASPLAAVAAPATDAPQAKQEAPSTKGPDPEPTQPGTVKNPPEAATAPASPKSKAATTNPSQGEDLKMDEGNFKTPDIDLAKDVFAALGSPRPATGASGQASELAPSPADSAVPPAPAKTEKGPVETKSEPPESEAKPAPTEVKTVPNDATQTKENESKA
neural cell adhesion molecule isoform NCAM140 (P13595-2, form named): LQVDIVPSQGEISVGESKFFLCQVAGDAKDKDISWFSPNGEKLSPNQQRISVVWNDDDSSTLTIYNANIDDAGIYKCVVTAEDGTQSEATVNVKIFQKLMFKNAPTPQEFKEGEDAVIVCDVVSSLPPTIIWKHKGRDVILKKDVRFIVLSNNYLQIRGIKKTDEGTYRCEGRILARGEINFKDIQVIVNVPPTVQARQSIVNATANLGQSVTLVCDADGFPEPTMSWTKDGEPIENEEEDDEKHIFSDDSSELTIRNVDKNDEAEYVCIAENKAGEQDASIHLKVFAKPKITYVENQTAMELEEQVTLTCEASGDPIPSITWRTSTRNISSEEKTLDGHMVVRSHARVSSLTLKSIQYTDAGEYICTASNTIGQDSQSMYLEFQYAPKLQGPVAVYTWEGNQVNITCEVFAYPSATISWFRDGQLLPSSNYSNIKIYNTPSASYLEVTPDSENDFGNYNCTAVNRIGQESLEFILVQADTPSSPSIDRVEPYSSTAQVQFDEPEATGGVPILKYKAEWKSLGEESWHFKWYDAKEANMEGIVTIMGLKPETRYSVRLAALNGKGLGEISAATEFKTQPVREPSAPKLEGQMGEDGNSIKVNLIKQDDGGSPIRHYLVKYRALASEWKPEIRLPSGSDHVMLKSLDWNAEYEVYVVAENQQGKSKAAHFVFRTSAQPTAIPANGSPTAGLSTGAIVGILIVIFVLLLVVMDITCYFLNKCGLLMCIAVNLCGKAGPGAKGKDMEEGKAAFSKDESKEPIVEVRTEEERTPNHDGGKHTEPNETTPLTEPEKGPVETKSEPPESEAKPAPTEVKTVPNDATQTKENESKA
UniProt Q61056: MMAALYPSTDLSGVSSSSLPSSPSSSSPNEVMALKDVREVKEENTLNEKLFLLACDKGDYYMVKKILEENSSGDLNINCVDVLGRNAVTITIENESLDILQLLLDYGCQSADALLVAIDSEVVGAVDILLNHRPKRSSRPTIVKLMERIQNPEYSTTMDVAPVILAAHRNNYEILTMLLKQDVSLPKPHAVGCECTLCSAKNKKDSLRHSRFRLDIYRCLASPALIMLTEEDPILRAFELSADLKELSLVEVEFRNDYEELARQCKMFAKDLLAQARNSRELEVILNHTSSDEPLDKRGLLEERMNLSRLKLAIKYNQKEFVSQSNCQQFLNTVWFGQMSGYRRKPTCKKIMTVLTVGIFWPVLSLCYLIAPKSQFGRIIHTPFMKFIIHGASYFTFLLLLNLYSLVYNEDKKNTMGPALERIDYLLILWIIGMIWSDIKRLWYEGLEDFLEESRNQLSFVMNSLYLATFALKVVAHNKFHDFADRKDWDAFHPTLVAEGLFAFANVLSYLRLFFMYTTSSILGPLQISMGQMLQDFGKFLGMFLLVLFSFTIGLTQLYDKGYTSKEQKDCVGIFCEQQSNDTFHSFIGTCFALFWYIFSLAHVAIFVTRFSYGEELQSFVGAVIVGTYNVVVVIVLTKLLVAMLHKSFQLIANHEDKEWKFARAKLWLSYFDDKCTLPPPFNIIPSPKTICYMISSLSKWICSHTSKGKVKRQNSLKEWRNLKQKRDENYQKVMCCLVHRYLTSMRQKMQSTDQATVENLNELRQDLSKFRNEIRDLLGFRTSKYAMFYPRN
GST-tagged N-terminal ICD of TRPC1 (P48995, residues 1-386): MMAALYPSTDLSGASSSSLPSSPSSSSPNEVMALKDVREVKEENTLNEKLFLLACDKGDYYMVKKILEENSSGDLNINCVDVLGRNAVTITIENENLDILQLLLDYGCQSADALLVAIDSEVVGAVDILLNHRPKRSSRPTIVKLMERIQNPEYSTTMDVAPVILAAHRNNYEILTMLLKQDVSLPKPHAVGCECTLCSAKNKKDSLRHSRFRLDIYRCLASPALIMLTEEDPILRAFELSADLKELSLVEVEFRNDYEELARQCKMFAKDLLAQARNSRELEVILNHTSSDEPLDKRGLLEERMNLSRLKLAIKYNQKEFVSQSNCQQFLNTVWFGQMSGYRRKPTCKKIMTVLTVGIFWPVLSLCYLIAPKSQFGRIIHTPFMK
GST-tagged C-terminal ICD of TRPC1 (P48995, residues 638-793): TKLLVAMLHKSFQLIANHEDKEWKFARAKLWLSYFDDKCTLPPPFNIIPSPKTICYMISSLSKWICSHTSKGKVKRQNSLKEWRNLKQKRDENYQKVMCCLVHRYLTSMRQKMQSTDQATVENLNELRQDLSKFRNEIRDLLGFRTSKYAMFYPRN
UniProt Q9QUQ5: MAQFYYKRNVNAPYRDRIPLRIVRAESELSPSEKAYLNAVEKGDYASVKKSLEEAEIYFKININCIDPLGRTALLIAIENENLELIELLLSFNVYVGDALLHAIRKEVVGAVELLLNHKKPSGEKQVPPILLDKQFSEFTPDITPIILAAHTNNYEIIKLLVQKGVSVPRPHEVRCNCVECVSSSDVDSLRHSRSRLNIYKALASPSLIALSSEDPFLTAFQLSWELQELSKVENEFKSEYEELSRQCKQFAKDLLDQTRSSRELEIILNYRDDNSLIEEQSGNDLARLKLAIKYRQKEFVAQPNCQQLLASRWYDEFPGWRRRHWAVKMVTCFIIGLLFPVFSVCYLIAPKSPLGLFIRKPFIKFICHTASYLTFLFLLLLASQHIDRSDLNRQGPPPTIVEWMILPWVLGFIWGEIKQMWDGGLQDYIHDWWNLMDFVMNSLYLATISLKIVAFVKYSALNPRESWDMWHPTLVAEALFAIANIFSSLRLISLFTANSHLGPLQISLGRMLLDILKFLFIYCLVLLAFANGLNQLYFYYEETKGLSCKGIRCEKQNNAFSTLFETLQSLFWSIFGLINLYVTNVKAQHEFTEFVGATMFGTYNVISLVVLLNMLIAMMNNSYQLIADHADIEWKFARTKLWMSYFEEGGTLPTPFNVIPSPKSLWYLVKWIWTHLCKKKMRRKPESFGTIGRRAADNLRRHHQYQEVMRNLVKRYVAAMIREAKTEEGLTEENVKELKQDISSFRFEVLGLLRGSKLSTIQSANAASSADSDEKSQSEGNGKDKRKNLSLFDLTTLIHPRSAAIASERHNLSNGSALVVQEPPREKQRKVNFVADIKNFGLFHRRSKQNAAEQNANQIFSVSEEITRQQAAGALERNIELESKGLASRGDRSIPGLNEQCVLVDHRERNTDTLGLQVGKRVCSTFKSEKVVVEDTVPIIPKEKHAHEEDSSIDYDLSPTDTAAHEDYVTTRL
UniProt Q9QX29: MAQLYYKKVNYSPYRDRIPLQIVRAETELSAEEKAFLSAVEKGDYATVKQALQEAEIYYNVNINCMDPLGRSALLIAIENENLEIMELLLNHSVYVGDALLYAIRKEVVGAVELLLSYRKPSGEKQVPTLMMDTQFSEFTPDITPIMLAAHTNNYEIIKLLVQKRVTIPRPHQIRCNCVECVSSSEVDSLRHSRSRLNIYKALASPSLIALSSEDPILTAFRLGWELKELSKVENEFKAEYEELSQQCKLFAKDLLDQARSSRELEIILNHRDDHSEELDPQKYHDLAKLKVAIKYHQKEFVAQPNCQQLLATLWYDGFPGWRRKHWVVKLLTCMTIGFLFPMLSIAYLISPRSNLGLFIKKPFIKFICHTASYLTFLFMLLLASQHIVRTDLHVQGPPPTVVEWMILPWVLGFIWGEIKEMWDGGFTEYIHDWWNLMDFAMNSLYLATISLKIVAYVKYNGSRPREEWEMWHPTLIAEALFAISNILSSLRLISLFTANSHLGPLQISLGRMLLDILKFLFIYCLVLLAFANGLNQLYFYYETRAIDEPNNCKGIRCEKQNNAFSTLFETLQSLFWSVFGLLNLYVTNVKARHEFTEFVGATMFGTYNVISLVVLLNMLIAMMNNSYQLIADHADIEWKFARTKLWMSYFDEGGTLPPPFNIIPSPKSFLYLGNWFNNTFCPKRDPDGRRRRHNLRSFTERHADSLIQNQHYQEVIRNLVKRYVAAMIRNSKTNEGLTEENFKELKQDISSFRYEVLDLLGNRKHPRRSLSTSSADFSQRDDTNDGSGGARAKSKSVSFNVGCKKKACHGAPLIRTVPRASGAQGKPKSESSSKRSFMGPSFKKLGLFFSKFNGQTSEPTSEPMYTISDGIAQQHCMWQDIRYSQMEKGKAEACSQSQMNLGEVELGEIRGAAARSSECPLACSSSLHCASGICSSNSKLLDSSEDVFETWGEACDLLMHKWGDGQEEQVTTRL

The target of experiment [1] is neural cell adhesion molecule (NCAM) (mouse (endogenous in mouse brain and neurons)) (UniProt P13595). The experiment is described as follows: co-IP; brain detergent extracts of wild-type and NCAM-deficient mice; IP with NCAM antibody H28 (extracellular domain); Western blot with TRPC1 E-6, TRPC4 N77/15, TRPC5 N67/15 and TRPC3/6/7 H-100.
Experiment [2] addresses T1, transient receptor potential canonical channel 3 (TRPC3) (mouse (endogenous in mouse brain)) (UniProt Q9QZC1).
T1 sequence: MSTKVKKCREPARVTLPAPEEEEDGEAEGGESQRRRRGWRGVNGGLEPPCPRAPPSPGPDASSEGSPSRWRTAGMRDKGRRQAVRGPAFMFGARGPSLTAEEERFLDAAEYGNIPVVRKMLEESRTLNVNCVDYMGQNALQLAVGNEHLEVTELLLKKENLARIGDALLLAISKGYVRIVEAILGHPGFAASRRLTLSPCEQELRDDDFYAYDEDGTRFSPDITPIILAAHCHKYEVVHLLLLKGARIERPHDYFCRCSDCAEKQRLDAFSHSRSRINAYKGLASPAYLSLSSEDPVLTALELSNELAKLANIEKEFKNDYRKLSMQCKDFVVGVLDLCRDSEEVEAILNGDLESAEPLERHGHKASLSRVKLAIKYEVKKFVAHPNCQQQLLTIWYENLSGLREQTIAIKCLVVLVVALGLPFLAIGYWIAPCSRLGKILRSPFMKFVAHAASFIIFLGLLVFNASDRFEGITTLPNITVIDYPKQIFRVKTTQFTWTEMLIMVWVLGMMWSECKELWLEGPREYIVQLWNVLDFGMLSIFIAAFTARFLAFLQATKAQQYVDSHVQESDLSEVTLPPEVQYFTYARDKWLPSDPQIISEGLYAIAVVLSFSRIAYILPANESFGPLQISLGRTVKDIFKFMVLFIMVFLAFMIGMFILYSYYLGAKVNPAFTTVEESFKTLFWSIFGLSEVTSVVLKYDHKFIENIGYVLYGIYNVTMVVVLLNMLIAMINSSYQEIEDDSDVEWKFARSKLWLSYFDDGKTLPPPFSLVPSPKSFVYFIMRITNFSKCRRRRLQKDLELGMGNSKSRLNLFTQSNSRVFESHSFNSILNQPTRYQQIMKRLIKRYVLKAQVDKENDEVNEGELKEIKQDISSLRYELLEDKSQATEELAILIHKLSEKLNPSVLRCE
The experiment is described as follows: co-IP; detergent extract (1% Nonidet P-40) of young adult mouse brain; IP with TRPC1 antibody H-105, TRPC4/5 antibody H-80, TRPC3/6/7 antibody H-100 or nonimmune Ig on Protein G or A Dynabeads, 2 h at 4 °C; Western blot with NCAM antibodies 5B8, D3 or TRPC3/6/7 antibody H-100.

For experiment [3], the target named is transient receptor potential canonical channel 1 (TRPC1) (mouse (endogenous in mouse brain and neurons)) (UniProt Q61056). Described as above.
Experiment [4] concerns the target T2, transient receptor potential canonical channel 7 (TRPC7) (mouse (endogenous in mouse brain)) (UniProt Q9WVC5).
T2 sequence: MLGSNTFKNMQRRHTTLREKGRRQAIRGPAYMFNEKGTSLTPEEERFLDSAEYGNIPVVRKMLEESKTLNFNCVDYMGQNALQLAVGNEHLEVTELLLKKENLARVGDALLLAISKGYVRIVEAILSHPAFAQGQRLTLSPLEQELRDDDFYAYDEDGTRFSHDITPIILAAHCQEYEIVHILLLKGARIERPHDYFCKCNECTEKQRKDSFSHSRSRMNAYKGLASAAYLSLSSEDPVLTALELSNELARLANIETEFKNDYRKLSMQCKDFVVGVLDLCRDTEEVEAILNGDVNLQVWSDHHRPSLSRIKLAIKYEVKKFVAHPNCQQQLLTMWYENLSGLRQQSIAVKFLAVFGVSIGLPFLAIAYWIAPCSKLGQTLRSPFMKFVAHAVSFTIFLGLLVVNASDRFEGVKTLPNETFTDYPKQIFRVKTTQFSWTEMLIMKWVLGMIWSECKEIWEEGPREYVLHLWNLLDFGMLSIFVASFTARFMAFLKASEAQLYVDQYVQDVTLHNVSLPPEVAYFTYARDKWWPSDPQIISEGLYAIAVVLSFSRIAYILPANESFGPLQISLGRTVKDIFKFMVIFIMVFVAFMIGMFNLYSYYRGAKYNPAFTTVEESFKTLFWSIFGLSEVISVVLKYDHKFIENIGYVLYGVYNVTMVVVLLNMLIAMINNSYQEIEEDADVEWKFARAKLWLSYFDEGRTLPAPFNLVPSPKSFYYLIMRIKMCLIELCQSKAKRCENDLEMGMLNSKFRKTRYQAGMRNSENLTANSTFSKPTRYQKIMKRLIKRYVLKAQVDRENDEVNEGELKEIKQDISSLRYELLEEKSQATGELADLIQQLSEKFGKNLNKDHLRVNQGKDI
The description is as above.

Experiment [5] concerns the target T3, transient receptor potential canonical channel 6 (TRPC6) (mouse (endogenous in mouse brain)) (UniProt Q61143).
T3 sequence: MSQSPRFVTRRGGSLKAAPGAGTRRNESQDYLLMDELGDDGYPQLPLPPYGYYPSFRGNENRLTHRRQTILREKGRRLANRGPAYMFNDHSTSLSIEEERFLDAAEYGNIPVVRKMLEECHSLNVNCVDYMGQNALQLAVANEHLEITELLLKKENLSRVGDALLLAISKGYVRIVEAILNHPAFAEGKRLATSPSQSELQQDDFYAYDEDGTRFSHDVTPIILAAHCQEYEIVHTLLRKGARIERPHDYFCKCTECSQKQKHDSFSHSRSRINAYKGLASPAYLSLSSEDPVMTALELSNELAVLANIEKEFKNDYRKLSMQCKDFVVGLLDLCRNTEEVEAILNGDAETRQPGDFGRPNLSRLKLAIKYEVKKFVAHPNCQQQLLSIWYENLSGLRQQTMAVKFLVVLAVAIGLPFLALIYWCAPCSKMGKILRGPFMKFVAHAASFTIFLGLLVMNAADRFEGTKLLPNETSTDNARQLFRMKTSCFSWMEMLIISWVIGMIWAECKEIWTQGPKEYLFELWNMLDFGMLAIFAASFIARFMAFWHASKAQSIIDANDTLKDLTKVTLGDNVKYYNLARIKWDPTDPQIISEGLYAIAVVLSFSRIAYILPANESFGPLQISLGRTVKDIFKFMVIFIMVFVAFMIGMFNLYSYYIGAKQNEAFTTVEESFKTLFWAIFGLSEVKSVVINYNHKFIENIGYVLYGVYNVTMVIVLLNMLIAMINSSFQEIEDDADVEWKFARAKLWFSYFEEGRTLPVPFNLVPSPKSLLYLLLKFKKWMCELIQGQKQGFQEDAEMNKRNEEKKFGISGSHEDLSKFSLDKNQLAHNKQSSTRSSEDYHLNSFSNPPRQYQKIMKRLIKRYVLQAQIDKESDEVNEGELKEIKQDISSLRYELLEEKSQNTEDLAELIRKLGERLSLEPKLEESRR
The experiment is described as above.

The target of experiment [6] is GST-tagged C-terminal ICD of TRPC1 (human) (UniProt P48995). Kind of experiment: pull-down; GST, GST-tagged N- or C-terminal TRPC1-ICD on glutathione–agarose beads, incubated with mouse brain detergent extract 2 h at 4 °C; Western blot with NCAM antibodies 5B8 and D3; only the target purified. On the technique in general: Immunoblotting shows a protein as a band on a membrane.

For experiment [7], the target named is GST-tagged N-terminal ICD of TRPC1 (human) (UniProt P48995). Described as above.
In experiment [8] the target is transient receptor potential canonical channel 4 (TRPC4) (mouse (endogenous in mouse brain and neurons)) (UniProt Q9QUQ5). The experiment is described as follows: proximity ligation; Duolink assay on fixed, permeabilized wild-type cortical neurons transfected with plasma membrane and ER markers, read by TIRF microscopy; without or with function-triggering NCAM antibody or EndoN.

Experiment [9] deals with transient receptor potential canonical channel 1 (TRPC1) (mouse (endogenous in mouse brain and neurons)) (UniProt Q61056). The description is as above.
Experiment [10] deals with transient receptor potential canonical channel 5 (TRPC5) (mouse (endogenous in mouse brain and neurons)) (UniProt Q9QX29). The description is as above.
Experiment [11] deals with transient receptor potential canonical channel 4 (TRPC4) (mouse (endogenous in mouse brain and neurons)) (UniProt Q9QUQ5). The experiment is described as follows: proximity ligation; Duolink assay on fixed cultured hippocampal, cerebellar and cortical neurons of wild-type and NCAM-deficient mice; NCAM antibody GTX133217 with TRPC1 E-6, TRPC4 N77/15 or TRPC5 N67/15, or PSA antibody 735 with TRPC1 GTX54876 or TRPC4 ACC-119; confocal microscopy.

Experiment [12] addresses transient receptor potential canonical channel 1 (TRPC1) (mouse (endogenous in mouse brain and neurons)) (UniProt Q61056). Described as above.
Experiment [13] deals with transient receptor potential canonical channel 5 (TRPC5) (mouse (endogenous in mouse brain and neurons)) (UniProt Q9QX29). Described as above.

Results are given in words; binding and its absence hold for the method and conditions named. In cells and extracts the contact can be indirect. Some binding calls cover weakened binding; strength is not graded here.

As for “transient receptor potential canonical channel 1 (TRPC1) (from UniProt Q61056 1-793)”, the binding entry in [1] is recorded as “binds”.

Consider “neural cell adhesion molecule isoform NCAM180 (from UniProt P13595-1 20-1115)”, for which the binding result in experiment [2] was “no binding”; in experiment [3], “binds”; in [4], “no binding”; in experiment [5], “no binding”; in experiment [6], “no binding”; in experiment [7], “binds”.

As for “neural cell adhesion molecule isoform NCAM140 (from UniProt P13595-2 20-848)”, the binding entry in experiment [2] is on record as “no binding”; in [3] it was “binds”; in experiment [4], “no binding”; in experiment [5], “no binding”; in experiment [7], “binds weakly”.

With “transient receptor potential canonical channel 4 (TRPC4) (from UniProt Q9QUQ5 1-974)”, the binding result in [1] was “binds”.

As for “transient receptor potential canonical channel 5 (TRPC5) (from UniProt Q9QX29 1-975)”, the binding entry in experiment [1] is on record as “binds”.

As to “neural cell adhesion molecule (NCAM) (from UniProt P13595 20-1115)”, the binding result in [8], in experiment [9], in [10], in experiment [11], in [12] and in experiment [13] was “binds” throughout.
